Holding throughout (assay): Primary Screen for Target Class Profiling of Small Molecule Inhibitors of Methyltransferases
Assay [1] concerns the target Glycine N-methyltransferase (Homo sapiens) (UniProt Q14749). The settings on record: purified enzyme, MTase-Glo SAH luminescence; measured here: GNMT inhibition; at 40 µM; stronger effect = lower value. The procedure, abridged:
(§1)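 Each enzyme was reacted with SAM and its substrate, with compounds tested once at 40 uM; SAH formed was read by MTase-Glo luminescence.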

Assay [2] has as its target Guanidinoacetate N-methyltransferase (Homo sapiens) (UniProt Q14353). The settings on record: purified enzyme, MTase-Glo SAH luminescence; measured here: GAMT inhibition; at 40 µM; stronger effect = lower value. The method in brief: as §1
Assay [3] deals with Histamine N-methyltransferase (Homo sapiens) (UniProt P50135). The settings on record: purified enzyme, MTase-Glo SAH luminescence; measured here: HNMT inhibition; at 40 µM; stronger effect = lower value. The method in brief: as §1
The target in assay [4] is Nicotinamide N-methyltransferase (Homo sapiens) (UniProt P40261). The settings on record: purified enzyme, MTase-Glo SAH luminescence; measured here: NNMT inhibition; at 40 µM; stronger effect = lower value. The procedure, abridged:
as §1

Assay [5] deals with Phenylethanolamine N-methyltransferase (Homo sapiens) (UniProt P11086). Conditions: purified enzyme, MTase-Glo SAH luminescence; measured here: PNMT inhibition; at 40 µM; stronger effect = lower value. The method in brief: as §1

Some of the results follow. Further columns of the screen follow, without active or inactive calls.
% is scaled to controls: 0 for no effect and ±100 for the full control effect.

Regarding `CCOC(=O)c1ccc(NS(=O)(=O)c2ccc3c(c2)n(C)c(=O)n3C)cc1`, the activity change, negative = inhibition in assay [1] is -4.89%; in assay [2], 0%; in assay [3], 12.9%; in assay [4] it was 18.2%; in assay [5], 4%.

With `OC[C@H]1O[C@@H](OCCc2ccc(O)cc2)[C@H](O)[C@@H](O)[C@@H]1O`, the activity change, negative = inhibition in assay [1] is 0.151%; in assay [2], -1.65%; in assay [3], -1.14%; in assay [4], -11.7%; in assay [5], 3.29%.

As for `C=CCc1ccc(O[C@@H]2O[C@H](CO)[C@@H](O)[C@H](O)[C@H]2O)c(O[C@@H]2O[C@H](CO)[C@@H](O)[C@H](O)[C@H]2O)c1`, the activity change, negative = inhibition was 0% in assay [1]; 9.4% in assay [2]; 7.52% in assay [3]; -1.57% in assay [4]; 8.9% in assay [5].

On to `CCCn1c(=O)c2ccc(C(=O)NC(C)C)cc2n2c(SCc3ccc(N4CCCC4=O)cc3)nnc12`, for which the activity change, negative = inhibition is -3.81% in assay [1]; 0.312% in assay [2]; -2.08% in assay [3]; -6.56% in assay [4]; -3.48% in assay [5].

With `COc1ccc(CNC(=O)C2(C)Cn3cnc(C(=O)NCc4cccc(F)c4)c3C(=O)N2C2CC2)cc1` (stereo not given), the activity change, negative = inhibition in assay [1] is -3.39%; in assay [2], 0.226%; in assay [3], 1.12%; in assay [4], -3.09%; in assay [5], -2.49%.

On to `FC(F)(F)c1ccc(Nc2nc(-c3c(C(F)(F)F)nc4ccccn34)cs2)cc1`, for which the activity change, negative = inhibition in assay [1] is -2.01%; in assay [2], -0.076%; in assay [3], 1.94%; in assay [4], -27.4%; in assay [5] it was 3.64%.

`CC(C)c1ccc(NC(=O)Cn2c(=O)oc3cc(S(=O)(=O)NCc4ccccc4)ccc32)cc1`: the activity change, negative = inhibition in assay [1] was -59.7%; in assay [2], 0.059%; in assay [3], -0.461%; in assay [4], -0.091%; in assay [5], 4.71%.

On to `COc1cccc(N2CCN(C(=O)CCc3nnc4n(Cc5ccc(F)cc5)c(=O)c5ccccc5n34)CC2)c1`, for which the activity change, negative = inhibition is 1.69% in assay [1]; 1.46% in assay [2]; 10.2% in assay [3]; -0.457% in assay [4]; 2.36% in assay [5].

For the molecule `CCOc1ccccc1CN1C(=O)c2cc3sccc3n2CC1(C)C(=O)NC1CCC(C)CC1` (stereo not given), the activity change, negative = inhibition is -7.57% in assay [1]; 1.84% in assay [2]; -7.11% in assay [3]; -5.43% in assay [4]; -7.87% in assay [5].

As to `CC(NC(=O)c1ccc2c(=O)nc3c(-c4cccc(F)c4)n[nH]n3c2c1)c1ccc(F)cc1` (stereo not given), the activity change, negative = inhibition in assay [1] is -31.7%; in assay [2], -2.7%; in assay [3] it was -3.41%; in assay [4], -10.6%; in assay [5], -4.56%.

Take `COc1cccc(C(=O)NCCNc2nc3cc(C)cc(C)c3cc2C#N)c1`: the activity change, negative = inhibition in assay [1] is -9.1%; in assay [2] it was -3.28%; in assay [3], 2.6%; in assay [4] it was -28.3%; in assay [5], -3.16%.

`CC1CCC(NC(=O)C2(C)Cn3c(ccc3-c3ccco3)C(=O)N2CCc2ccccc2)CC1` (stereo not given): the activity change, negative = inhibition in assay [1] is -5.09%; in assay [2], 0%; in assay [3], 5.84%; in assay [4] it was -6.25%; in assay [5] it was -0.293%.

As for `Cn1nccc1C(=O)N1CCC2(CCCN(Cc3cccc(F)c3F)C2=O)C1` (stereo not given), the activity change, negative = inhibition in assay [1] was -4%; in assay [2] it was -2.68%; in assay [3], -0.933%; in assay [4] it was -6.89%; in assay [5], -4.7%.

Regarding `COc1ccc(NC(=O)c2cc3c(s2)CN(C2CCCC2)C3)c(OC)c1`, the activity change, negative = inhibition in assay [1] was -4.02%; in assay [2], -4.95%; in assay [3], -4.38%; in assay [4], -3.27%; in assay [5], -0.661%.

Take `COC(=O)c1ccc2c(c1)[nH]c1ncnc(NCCCN3CCCCC3)c12`: the activity change, negative = inhibition in assay [1] was -0.128%; in assay [2], 4.51%; in assay [3] it was -22.5%; in assay [4], -31.3%; in assay [5], -7.74%.

Take `CC1OC(OC2C(OC3C(O[C@H]4CC[C@@]5(C)C(CC[C@]6(C)C5C(=O)C=C5C7CC(C)(C)CC(O)[C@]7(C)CC[C@]56C)C4(C)C)OC(C(=O)O)C(O)C3O)OCC(O)C2O)C(O)C(O)C1O` (stereo not given in full): the activity change, negative = inhibition in assay [1] was -1.33%; in assay [2], -10.5%; in assay [3] it was -3.06%; in assay [4], -18.9%; in assay [5], 0.347%.

For `CCCCN1C(=O)c2cc(C(=O)N3CCN(c4ccc(F)cc4)CC3)nn2CC1(C)C(=O)NC1CCCC1` (stereo not given), the activity change, negative = inhibition was determined as 1.65% in assay [1]; 0% in assay [2]; 4.14% in assay [3]; 0.58% in assay [4]; 1.68% in assay [5].

Regarding `Cc1cc(C(=O)N2CCC3(CC2)CC(N2CCN(c4ccccn4)CC2)CCO3)n[nH]1` (stereo not given), the activity change, negative = inhibition in assay [1] is -0.943%; in assay [2] it was -1.05%; in assay [3], -2.11%; in assay [4], -0.809%; in assay [5], -2.35%.

In the case of `O=C(NCCc1ccc(Cl)cc1)C1CCc2nnc(C3CCN([S+](=O)([O-])c4ccccc4)CC3)n21` (stereo not given), the activity change, negative = inhibition in assay [1] was -8.89%; in assay [2], -3.62%; in assay [3] it was -8.1%; in assay [4], -14.3%; in assay [5], -12.3%.

On to `Cc1nc(-c2c3n(c(=O)n(Cc4ccccc4C(F)(F)F)c2=O)CCCCC3)no1`, for which the activity change, negative = inhibition in assay [1] is -2.89%; in assay [2] it was -3.98%; in assay [3], -1.33%; in assay [4], -11.8%; in assay [5], -7.76%.

Take `CCC(C)NC(=O)c1ccc2c(=O)n(C)c3nnc(SCC(=O)Nc4ccc(Cl)cc4)n3c2c1` (stereo not given): the activity change, negative = inhibition in assay [1] is 0.954%; in assay [2], 2.05%; in assay [3] it was -2.25%; in assay [4] it was -1.93%; in assay [5] it was -0.048%.

With `COCCNC(=O)C1c2ccccc2C(=O)N(Cc2ccco2)C12CCCCC2` (stereo not given), the activity change, negative = inhibition in assay [1] is -5.5%; in assay [2] it was -11.4%; in assay [3] it was -4.93%; in assay [4], -19.1%; in assay [5] it was -15.1%.

Consider `CCOC(=O)C[C@@H]1C[C@@H](C(C)C)[C@H](CNC(=O)c2cccnc2)C=C1C`, for which the activity change, negative = inhibition in assay [1] is -5.41%; in assay [2], -3.93%; in assay [3], -0.983%; in assay [4] it was -14%; in assay [5], -10.1%.

Turning to `CCCn1c(=O)c2ccc(Cl)cc2n2c(=O)n(Cc3ccc(F)cc3Cl)nc12`, the activity change, negative = inhibition in assay [1] worked out at 2.7%; in assay [2] it was 0%; in assay [3] it was 7.75%; in assay [4], 9.51%; in assay [5], 3.44%.

As to `O=C1NC2(Cc3ccccc31)CN(C(=O)c1ccccc1)C2`, the activity change, negative = inhibition in assay [1] is -4.67%; in assay [2], -1.92%; in assay [3], -1.32%; in assay [4], -10.2%; in assay [5], -3.85%.

`COc1ccc(CNC(=O)C2(C)Cn3cnc(C(=O)NCc4cccc(C)c4)c3C(=O)N2C2CC2)cc1` (stereo not given): the activity change, negative = inhibition in assay [1] is -7.99%; in assay [2] it was 6.65%; in assay [3] it was -3.25%; in assay [4], -5.47%; in assay [5], 0.264%.

With `COCCCn1c(C)cnc1CC1CCN(C(=O)C2CCCCC2)CC1`, the activity change, negative = inhibition in assay [1] was -3.84%; in assay [2], -4.47%; in assay [3], -11.8%; in assay [4], -10.6%; in assay [5], 0.155%.

Take `Cc1ccc(CNC(=O)N2CCc3nnc(C4CC4)n3CC2)cc1`: the activity change, negative = inhibition was -1.21% in assay [1]; 0.314% in assay [2]; 0.295% in assay [3]; -1.35% in assay [4]; -4.23% in assay [5].

In the case of `Cc1cnc(C2CC2)n1C1CCN(C(=O)C2CC2)CC1`, the activity change, negative = inhibition in assay [1] is -1.91%; in assay [2] it was -1.04%; in assay [3], -32.4%; in assay [4], -2.81%; in assay [5] it was 14.5%.

As for `C[C@@H]1C(=O)O[C@H](C)[C@H]1CC(=O)[C@](C)(O)[C@H]1CC[C@@]2(O)C3=CC(=O)[C@@H]4C[C@@H](O)[C@@H](O)C[C@]4(C)C3CC[C@]12C` (stereo not given in full), the activity change, negative = inhibition in assay [1] is -3.15%; in assay [2] it was -3.43%; in assay [3], 7.72%; in assay [4] it was -17.3%; in assay [5] it was -11.8%.

`CC1(C(=O)NC2CC2)CCCc2cnc(Nc3cccnc3)nc21` (stereo not given): the activity change, negative = inhibition in assay [1] is -11.5%; in assay [2] it was -12.1%; in assay [3] it was -4.67%; in assay [4], -22%; in assay [5], -13.6%.

Turning to `CCN1CC2(CCN(Cc3nc(COC)no3)CC2)CC(c2ccccc2)C1=O` (stereo not given), the activity change, negative = inhibition in assay [1] was -5.37%; in assay [2], -7.33%; in assay [3] it was -2.38%; in assay [4], -11.1%; in assay [5], -5.46%.

For the molecule `COc1ccc(OC)c(S(=O)(=O)N2CCC([C@H]3[C@@H](OC)C(=O)N3C(C)C)CC2)c1`, the activity change, negative = inhibition is -6.87% in assay [1]; 2.11% in assay [2]; -5.02% in assay [3]; -7.65% in assay [4]; -7.18% in assay [5].

Consider `O=S(=O)(NC[C@H]1O[C@@H](CO)[C@@H](O)[C@H]1N1CCOCC1)c1ccc(Cl)cc1`, for which the activity change, negative = inhibition is -2.53% in assay [1]; -6.88% in assay [2]; -0.493% in assay [3]; -7.1% in assay [4]; -3.04% in assay [5].

As for `COc1ccc(C2(CNC(=O)[C@](C)(Cc3c[nH]c4ccccc34)NC(=O)Nc3ccc([N+](=O)[O-])cc3)CCCCC2)nc1`, the activity change, negative = inhibition in assay [1] was -2.63%; in assay [2], -16.4%; in assay [3], 5.52%; in assay [4], -27.7%; in assay [5], -14.6%.

Take `CCCn1c(=O)c2cc(F)ccc2n2c(SCc3cccc(OC)c3)nnc12`: the activity change, negative = inhibition in assay [1] was -2.87%; in assay [2] it was 1.35%; in assay [3] it was 6.56%; in assay [4], -1.31%; in assay [5], 7.01%.

The values are drawn from PubChem BioAssay AID1745853 (National Center for Advancing Translational Sciences (NCATS), 2022).
